Test results: publication PMC4336329 (PLoS ONE, 2015)
Out of some 310,000 compounds screened, about 2,200 (0.71%) showed an effect of 50% or more. The effect is printed as a negative number. The list shows a part of the results.

Target: human ether-à-go-go-related gene (hERG) potassium channel (human, UniProt Q12809)
Experiment: primary screen, population patch clamp on CHO cells stably expressing hERG

human ether-à-go-go-related gene (hERG) potassium channel, sequence (Q12809 whole entry, looked up): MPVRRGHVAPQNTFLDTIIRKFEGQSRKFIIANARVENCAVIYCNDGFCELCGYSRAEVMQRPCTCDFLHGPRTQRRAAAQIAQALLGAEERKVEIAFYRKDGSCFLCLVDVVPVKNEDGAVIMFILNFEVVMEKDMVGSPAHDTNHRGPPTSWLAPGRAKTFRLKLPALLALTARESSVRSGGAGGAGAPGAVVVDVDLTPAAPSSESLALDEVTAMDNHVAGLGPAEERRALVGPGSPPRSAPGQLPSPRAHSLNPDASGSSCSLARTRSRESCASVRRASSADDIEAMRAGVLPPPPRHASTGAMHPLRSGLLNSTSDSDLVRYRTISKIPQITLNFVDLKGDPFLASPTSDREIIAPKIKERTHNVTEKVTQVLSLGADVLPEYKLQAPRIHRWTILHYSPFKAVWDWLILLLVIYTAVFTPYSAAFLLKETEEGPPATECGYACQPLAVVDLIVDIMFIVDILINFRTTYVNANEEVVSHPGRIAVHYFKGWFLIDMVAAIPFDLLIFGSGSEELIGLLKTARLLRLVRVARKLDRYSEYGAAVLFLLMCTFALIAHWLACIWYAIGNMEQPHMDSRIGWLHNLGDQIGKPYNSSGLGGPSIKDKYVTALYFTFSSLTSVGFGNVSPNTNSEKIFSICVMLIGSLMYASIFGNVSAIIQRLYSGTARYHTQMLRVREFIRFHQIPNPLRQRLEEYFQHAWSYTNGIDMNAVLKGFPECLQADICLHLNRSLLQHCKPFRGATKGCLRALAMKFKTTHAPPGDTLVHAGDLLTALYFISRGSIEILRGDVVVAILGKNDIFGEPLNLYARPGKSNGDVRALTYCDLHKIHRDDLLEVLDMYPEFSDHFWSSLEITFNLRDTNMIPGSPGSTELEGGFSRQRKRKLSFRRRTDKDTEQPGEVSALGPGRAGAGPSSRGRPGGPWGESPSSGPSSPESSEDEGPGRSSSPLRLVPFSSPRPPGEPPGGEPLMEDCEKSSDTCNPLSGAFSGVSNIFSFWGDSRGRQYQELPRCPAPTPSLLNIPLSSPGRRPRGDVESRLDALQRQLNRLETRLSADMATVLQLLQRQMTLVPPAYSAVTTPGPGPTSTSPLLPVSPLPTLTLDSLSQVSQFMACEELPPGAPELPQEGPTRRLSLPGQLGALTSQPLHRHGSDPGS

| SMILES | hERG current change (%, negative = inhibition) at 1uM |
| --- | --- |
| CCN1CCN(c2cc(N3CCc4ccccc4C3)c(F)cc2[N+](=O)[O-])CC1 | 0.12% |
| CC(C)n1c(SCC(=O)NC2CC2)nnc1C1CC1 | 8.7% |
| CC1CC(C)CN(C(=O)c2ccncc2)C1 (centres unmarked) | 11.4% |
| Cc1ccc(S(=O)(=O)C2(C(=O)N3CCCCC3C)CC2)cc1 (centres unmarked) | 5.14% |
| Cc1ccc(NS(=O)(=O)c2cc(NC(=O)c3ccc4c(c3)NC(=O)CS4)ccc2C)c(C)c1 | 3.47% |
| CCOC(=O)N1CCN(S(=O)(=O)N2CCCC(C(=O)NCc3ccccc3OC)C2)CC1 (centres unmarked) | 1.05% |
| CC(=O)N1CC=C2C(C#N)=C(N)C(C#N)(C#N)C(CCc3ccccc3)C2C1 (centres unmarked) | 9.08% |
| CCCn1c(=O)c(C(=O)Nc2c(C)n(C)n(-c3ccccc3)c2=O)c(O)c2ccccc21 | 3.85% |
| S=C(NCC1CCCO1)Nc1ccc(Cl)cc1 (centres unmarked) | 15.7% |
| O=[N+]([O-])c1cccc(Cl)c1CSc1ccccn1 | 11% |
| Cc1ccc([C@@H]2[C@@H]3C(=O)N(C)C(=O)[C@@H]3[C@]3(Cc4ccccc4)C(=O)N(CCO)CC(=O)N23)o1 | 9.39% |
| Cc1ccc(N(C(=O)c2snc(C(N)=O)c2N)C(C(=O)NCC2CCCO2)c2c[nH]c3ccccc23)cc1 (centres unmarked) | 9.56% |
| CC(C)(C)S(=O)(=O)c1cnc2c(-c3ccc(F)cc3)cnn2c1N | -11.8% |
| COc1ccc(CCNC(=O)c2sc3ccccc3c2Cl)cc1OC | 5.35% |
| Cc1nn(C)c(N)c1C(O)(c1nccn1C)C(F)(F)F (centres unmarked) | 8.92% |
| CCC[C@@H]1C[C@@]1(CCC)[C@@H](NC(=O)c1ccccc1)c1ccc(C(=O)OC)cc1 | 24.5% |
| COc1ccc(C=O)cc1COc1ccc(Cl)cc1[N+](=O)[O-] | 13% |
| COc1ccc(/C(=N/OC(C)=O)c2nccc3cc(OC)c(OC)cc23)cc1OC | 13.8% |
| COC(=O)c1cc(C#N)c(=O)[nH]c1C | 17.2% |
| CCOC(=O)Cc1c(C)[nH]n(-c2ccccc2)c1=O | 14.7% |
| COc1ccc(CNC(=O)CN2C(=O)C3CCCN3c3ncc(Cl)cc32)cc1 (centres unmarked) | 1.3% |
| CN(CCOc1ccccc1)C(=O)C1CCC(=O)N(CCc2ccc(Cl)cc2)C1 (centres unmarked) | -51.2% |

| SMILES | hERG current change (%, negative = inhibition) at 1uM |
| --- | --- |
| CC(C)OP(=O)(c1ccc(N(C)C)cc1)C(O)c1cccnc1 (centres unmarked) | 11.7% |
| CC(=O)c1ccc(S(=O)(=O)Nc2cccc(-c3ccc(N4CCOCC4)nn3)c2)cc1 | 7.73% |
| Cc1ccccc1NC(=O)/C(=C\c1cccs1)NC(=O)c1ccco1 | -3.3% |
| Oc1ccc(NCc2ccccc2OCc2ccccc2F)cc1 | 10.4% |
| CC(Sc1nc(-c2ccccc2)cc(C(F)(F)F)n1)C(=O)NCCN1CCOCC1 (centres unmarked) | 12.3% |
| Cc1ccc(C(=O)c2cc3ccccc3o2)cc1 | 11.3% |
| CN(Cc1cccc(F)c1)C(=O)c1ccccc1Sc1ccccc1C#N | 13.2% |
| COc1cc(OC)c(/C=N/NC(=O)c2ccc(Cn3nc([N+](=O)[O-])cc3C)cc2)c(OC)c1 | 9.32% |
| COc1ccc(CCN(C)CCC(=O)Nc2cccc(C)c2)cc1OC.Cl | -44.4% |
| O=C(CSc1nnnn1C1CCCCC1)N1c2ccccc2Sc2ccccc21 | -2.6% |
| CC(=O)Nc1sc(NC(=O)c2ccc([N+](=O)[O-])cc2)nc1-c1cccs1 | 6.61% |
| COc1ccccc1CN(Cc1nc2ccccc2c(=O)[nH]1)C(=O)Nc1ccccc1 | -0.616% |
| CCOC(=O)C1CCN(C(C(=O)NC2CCCCC2)c2ccc(OC)cc2)CC1 (centres unmarked) | 2.65% |
| O=C(NC1CCCCC1)N1CCN(C(c2ccccc2)c2ccccc2)CC1 | 7.83% |
| Cc1ccc(NC(=O)CCNC(=O)c2ccc(Cl)cc2)nc1 | 3.43% |
| O=C(NCCc1ccccc1)[C@@H]1CC=C[C@@H]2CCN(Cc3ccccc3)C(=O)[C@@H]21 | 8.99% |
| Cc1cnc(C(=O)Nc2ccc(F)c(F)c2)cn1 | 16.2% |
| CCOC(=O)C1C(c2cccnc2)NC(=O)NC1(O)C(F)(F)F (centres unmarked) | 10.1% |
| CC(C)(C)c1nc(SCC(=O)NNC(=O)c2ccccc2)c2ccccc2n1 | 14.4% |
| O=C(Nc1ccc2c(c1)OCO2)O[C@@H]1C[C@H]2CCC(=O)N3CC[C@@H](C1)[C@@H]23 | 19.8% |
| CC1CCCCN1CCNC(=O)CCc1nnc2n(Cc3ccccc3)c(=O)c3ccccc3n12 (centres unmarked) | -8.67% |
| Cc1ccc(NC(=O)COC(=O)CNC(=O)c2ccc3ccccc3c2)c([N+](=O)[O-])c1 | 11.3% |

| SMILES | hERG current change (%, negative = inhibition) at 1uM |
| --- | --- |
| CCNC(=S)N/N=C/c1cccc(OCc2c(F)cccc2Cl)c1 | 4.23% |
| O=C(Nc1nnc(-c2ccccc2Cl)s1)c1ccccc1F | 13.1% |
| CCCCN(C(=O)c1ccc(N2CCCC2=O)cc1)c1c(N)n(Cc2ccccc2)c(=O)[nH]c1=O | 9.93% |
| C/C(N)=C(/C#N)C(=O)CSc1cc(Cl)ccc1Cl | -1.14% |
| C=CCn1c(SCC(=O)N2CC(=O)Nc3ccccc32)nc2scc(-c3cccs3)c2c1=O | 19.9% |
| CCCOC1CCCN(C(=O)c2ccc(OC3CCN(C(=O)CCOC)CC3)cc2)C1 (centres unmarked) | 18.2% |
| O=[N+]([O-])c1ccc(N2CCN(c3ccc(Cl)nn3)CC2)cc1NC1CC1 | -4.89% |
| COc1cc(SC)ccc1C(=O)NCCNC(=O)c1nonc1N | 6.87% |
| Cc1cc(N2CCCC2)nc2ccc(NC(=S)NCCCN3CCC(C)CC3)cc12 | 6.25% |
| CCOC(=O)C1CCN(Cc2cnc(Oc3ccc(N)cc3)s2)CC1 | 4.82% |
| COC(=O)C(NC(=O)CN1C(=O)c2ccccc2C1=O)c1ccc(O)c(OC)c1 (centres unmarked) | 10.6% |
| O=C(NN(C(=O)c1ccccc1)c1ccccc1)c1ccccc1 | 3.47% |
| CCOc1cc([C@@H]2C[C@H]3CN(c4ccccc4)C(=O)[C@]34CCCN24)ccc1OC | 5.9% |
| COCCCNC(=S)N1CCCN(c2nc3c(C)c(C)ccc3cc2C#N)CC1 | 7.45% |
| CN(C)CCCNC(=O)c1cc(C(=O)c2ccccc2)c[nH]1 | 14.2% |
| Cc1ccc(S(=O)(=O)N/N=C/c2ccc(OC3CSC3)cc2)cc1 | 2.89% |
| O=C1CC(N2CCN(S(=O)(=O)c3ccc(Cl)cc3)CC2)C(=O)N1CCc1ccccc1 (centres unmarked) | -19% |
| COc1cc(OC)cc(-c2nnc(SCC(=O)N3CCCC3)o2)c1 | 1.79% |
| O=C(Nc1ccccc1)NC1(C(=O)N2CCN(C(=O)c3ccco3)CC2)CCCCC1 | 13.2% |
| Cc1cc(SCC(=O)OC(C)C(=O)N(C)c2ccccc2)nc2ccccc12 (centres unmarked) | 12.6% |
| CCC(=O)N1CCN(c2ccc(NC(=S)NC(=O)c3cc4ccccc4o3)cc2)CC1 | 2.94% |
| CC1(C)CC(NS(=O)(=O)c2cccc3ccccc23)CC(C)(C)N1 | 4.06% |

| SMILES | hERG current change (%, negative = inhibition) at 1uM |
| --- | --- |
| CCc1cccc(C)c1NC(=O)CCCN1C(=O)NC(C)(C)C1=O | 2.8% |
| O=C(c1ccco1)N1CCCC(c2ccccc2)C1 (centres unmarked) | 8.56% |
| OCCC1CN(Cc2cc3c(cc2Cl)OCO3)CCN1C1CCCC1 (centres unmarked) | 1.98% |
| CCN=C1S/C(=C\c2ccc(OC)c(OCC)c2)C(=O)N1CC | 9.91% |
| Cc1c2n(c3ccccc13)CCC2=O | 12.5% |
| Cc1ccccc1NC(=O)CCNS(=O)(=O)c1ccc2[nH]c(=O)oc2c1 | 10.5% |
| Nc1nonc1-c1nc2ccccc2n1CC(=O)Nc1ccccc1 | 3.06% |
| CC(/C=N/NC(=O)CSc1nc(C)cc(C)n1)=C\c1ccccc1 | 9.6% |
| Cc1ccc(-c2cn3nc(C)c(C)nc3n2)cc1 | 12% |
| COc1ccc(CCNS(=O)(=O)c2cccc([N+](=O)[O-])c2)cc1OC | 10.4% |
| Cc1cc(-c2cc(C(=O)NCc3ccccc3)on2)nc(NC2CCCC2)n1 | 17.6% |
| COc1ccc(CCNS(=O)(=O)c2ccc3c(c2)NC(=O)CS3)cc1OC | 5.67% |
| Cc1ccc2c(c1)N(C(C)C(=O)NCc1ccccn1)C(=O)CO2 (centres unmarked) | 3.85% |
| COc1cc(C(=S)N2CCOCC2)ccc1OC(=O)c1ccc([N+](=O)[O-])cc1[N+](=O)[O-] | 15.5% |
| CCOc1ccc(NC(=O)/C=C/c2ccc(OC)cc2)c([N+](=O)[O-])c1 | 7.64% |
| COc1ccc(OC)c(C(C)NC(=S)NC2CCCCC2)c1 (centres unmarked) | 10.3% |
| CCOc1ccc(C(=O)Nc2c3c(nn2-c2cccc(C)c2C)CS(=O)C3)cc1 (centres unmarked) | 3.13% |
| O=C(NN1C(=O)C2CC=C(Cl)CC2C1=O)c1ccncc1 (centres unmarked) | 16.1% |
| O=C(CNC(=O)c1cccc(F)c1)OCC(=O)N1CCCc2ccccc21 | 8.08% |
| O=C(CSc1ccc(F)cc1)Nc1ccc2c(c1)C(=O)NC2=O | 1.52% |
